Tested on: RSV
Assay: RSV infection, timing of administration (production of virus particles)
Details: administration before or within the first few hours after infection with RSV
Procedure: To determine the time in which treatment of cells with FGI-103 family compounds would be effective at inhibiting viral infection, NSC 369723 compound was tested for its ability to inhibit the production of virus particles (pfu/ml) depending on the time of treatment relative to the timing of infection of RSV.

N=C(N)c1ccc2oc(/C=C/c3nc4ccc(C(=N)N)cc4[nH]3)cc2c1 [NSC 369723]
inhibition of the production of virus particles (pfu/ml): effectively inhibited

Source: patent US20110152343A1, “PROTEASE INHIBITORS AND BROAD-SPECTRUM ANTIVIRAL” (Functional Genetics, Inc., priority 2009, published 2011)
